# Source: a collection of fitness landscapes (doi:10.1016/j.celrep.2020.107928)
# In all, about 81,000 sequences were measured (“one-hybrid fitness for binding parS DNA”: median about -0.17, highest 2% from about 0.51 on). This is one part of the list.
# B1: Caulobacter ParB omega fusion; a variant is named by its letters at X, in order, B8GW30 (parent)
# chain: MESVVVGEPGMSEGRRGLGRGLSALLGEVDAAPAQAPGEQLGGSREAPIEILQRNPDQPRRTFREEDLEDLSNSIREKGVLQPILVRPSPDTAGEYQIVAGERAWRAAQRAGLKTVPIMVRELDDLAVLEIGIIENVQRADLNVLEEALSYKVLMEKFERTQENIAQTIGKSXSHVANXMRLLXLPDEVQSYLVSGELTAXHARAIAAAADPVALAKQIIEGGLSVRETEALARKAPNLSAGKSKGGRPPRVKDTDTQALESDLSSVLGLDVSIDHRGSTGTLTITYATLEQLDDLCNRLTRGI
# Variants of: B1
# Test: one-hybrid fitness for binding parS DNA (scaled: cognate 1, non-cognate 0); higher = stronger binding
# Settings: with parS DNA site
# Procedure, shortened: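 Pre- and post-selection plasmids were Illumina-sequenced, three replicate libraries were pooled, and any variant with under 10 reads was removed. The libraries were Caulobacter ParB with four specificity codons randomised, selected in E. coli USO through a HIS3 reporter whose site is 19 bp from the promoter. Cells grew 48 hours at 37°C on M9 without histidine, with 0.1 mM IPTG and 5 mM 3-AT. Fitness is the log change in variant-to-wild-type read ratio, rescaled against cognate and non-cognate.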
row,Variant,one-hybrid fitness for binding parS DNA
1,FVGT,≤ 0.2
2,QFCT,≤ 0.2
3,GNSR,≤ 0.2
4,GYKM,≤ 0.2
5,KSAS,≤ 0.2
6,RYWR,≤ 0.2
7,TDQW,≤ 0.2
8,PSIN,≤ 0.2
9,REKM,≤ 0.2
10,LNAR,≤ 0.2
11,SGRS,≤ 0.2
12,PMIR,≤ 0.2
13,IGGG,≤ 0.2
14,TGKH,≤ 0.2
15,QFDY,≤ 0.2
16,VVAS,≤ 0.2
17,ASAG,≤ 0.2
18,ARFI,≤ 0.2
19,MCIG,≤ 0.2
20,YDTR,≤ 0.2
21,VFTM,≤ 0.2
22,NDLF,≤ 0.2
23,WVNV,≤ 0.2
24,CYYS,≤ 0.2
25,ASYW,≤ 0.2

row,Variant,one-hybrid fitness for binding parS DNA
1,LAIM,≤ 0.2
2,AYMS,≤ 0.2
3,QDPI,≤ 0.2
4,RSNT,0.911
5,QQVF,≤ 0.2
6,SSWA,≤ 0.2
7,AMKS,≤ 0.2
8,YPCR,≤ 0.2
9,GNHC,≤ 0.2
10,QIKT,≤ 0.2
11,SRLP,≤ 0.2
12,DLVE,≤ 0.2
13,CTAS,≤ 0.2
14,DRRY,≤ 0.2
15,QGMA,≤ 0.2
16,MSMG,≤ 0.2
17,QLDC,≤ 0.2
18,GPNL,≤ 0.2
19,REPG,≤ 0.2
20,TCSA,≤ 0.2
21,WAQL,≤ 0.2
22,PYAM,≤ 0.2
23,DVIC,≤ 0.2
24,FRHM,≤ 0.2
25,KLMS,≤ 0.2

row,Variant,one-hybrid fitness for binding parS DNA
1,FEHS,≤ 0.2
2,SFKR,≤ 0.2
3,QCCG,≤ 0.2
4,PKKY,≤ 0.2
5,RIPR,≤ 0.2
6,ACWN,≤ 0.2
7,WWTS,≤ 0.2
8,AHRI,≤ 0.2
9,ILPI,≤ 0.2
10,QFLI,≤ 0.2
11,TPVA,≤ 0.2
12,HMKW,≤ 0.2
13,TGHR,≤ 0.2
14,EQDG,≤ 0.2
15,FRKG,≤ 0.2
16,EFHA,≤ 0.2
17,QNMG,≤ 0.2
18,KDLK,≤ 0.2
19,MNGT,≤ 0.2
20,SVTY,≤ 0.2
21,VIFV,≤ 0.2
22,IKKF,≤ 0.2
23,DKEY,≤ 0.2
24,VHYK,≤ 0.2
25,NGHT,≤ 0.2

row,Variant,one-hybrid fitness for binding parS DNA
1,NPFR,≤ 0.2
2,TFWG,≤ 0.2
3,KCWY,≤ 0.2
4,ILPD,≤ 0.2
5,LVAH,≤ 0.2
6,KMEW,≤ 0.2
7,VQAA,≤ 0.2
8,EARS,≤ 0.2
9,ELFT,≤ 0.2
10,EVKS,≤ 0.2
11,GVTN,≤ 0.2
12,SPVQ,≤ 0.2
13,EGMI,≤ 0.2
14,RCAN,0.477
15,YRKE,≤ 0.2
16,LSER,≤ 0.2
17,NPRN,≤ 0.2
18,FVSG,≤ 0.2
19,THVG,≤ 0.2
20,YHTG,≤ 0.2
21,RHVI,≤ 0.2
22,QRQP,≤ 0.2
23,QVTR,≤ 0.2
24,GCRQ,≤ 0.2
25,TNFH,≤ 0.2

row,Variant,one-hybrid fitness for binding parS DNA
1,CAWW,≤ 0.2
2,GGAR,≤ 0.2
3,QKTT,≤ 0.2
4,DDKV,≤ 0.2
5,KHLV,≤ 0.2
6,ILRK,≤ 0.2
7,KLSL,≤ 0.2
8,DNLD,≤ 0.2
9,QHVF,≤ 0.2
10,DYAQ,≤ 0.2
11,WKLV,≤ 0.2
12,VLIL,≤ 0.2
13,RPDQ,≤ 0.2
14,VQYW,≤ 0.2
15,MCHR,≤ 0.2
16,PPPF,≤ 0.2
17,GAET,≤ 0.2
18,NAAA,≤ 0.2
19,YAPC,≤ 0.2
20,QQVW,≤ 0.2
21,RWSQ,≤ 0.2
22,HHFI,≤ 0.2
23,PPYK,≤ 0.2
24,HHPC,≤ 0.2
25,RQYV,≤ 0.2

row,Variant,one-hybrid fitness for binding parS DNA
1,PFYC,≤ 0.2
2,QHRF,≤ 0.2
3,LSGG,≤ 0.2
4,HRHF,≤ 0.2
5,GELG,≤ 0.2
6,KQAR,0.233
7,PGSM,≤ 0.2
8,CDES,≤ 0.2
9,DVDR,≤ 0.2
10,VIAT,≤ 0.2
11,PAQY,≤ 0.2
12,TRHV,≤ 0.2
13,VGDR,≤ 0.2
14,AWSG,≤ 0.2
15,WTFS,≤ 0.2
16,GSPE,≤ 0.2
17,DSSK,≤ 0.2
18,YEHC,≤ 0.2
19,HRSA,≤ 0.2
20,TYKA,≤ 0.2
21,PHHL,≤ 0.2
22,MQMG,≤ 0.2
23,LKHR,≤ 0.2
24,ALSF,≤ 0.2
25,CMLN,≤ 0.2

row,Variant,one-hybrid fitness for binding parS DNA
1,SGRK,≤ 0.2
2,CTQN,≤ 0.2
3,TLGE,≤ 0.2
4,KVTK,≤ 0.2
5,QNWF,≤ 0.2
6,VQAE,≤ 0.2
7,MYAS,≤ 0.2
8,RMWP,≤ 0.2
9,KRRG,≤ 0.2
10,VADG,≤ 0.2
11,GTCA,≤ 0.2
12,QCQA,≤ 0.2
13,TAQM,≤ 0.2
14,RFRE,≤ 0.2
15,MTWW,≤ 0.2
16,QTQP,≤ 0.2
17,EDNT,≤ 0.2
18,ATND,≤ 0.2
19,YNTG,≤ 0.2
20,NARY,≤ 0.2
21,QWPH,≤ 0.2
22,THPG,≤ 0.2
23,CSML,≤ 0.2
24,SDCW,≤ 0.2
25,TMSI,≤ 0.2

row,Variant,one-hybrid fitness for binding parS DNA
1,RYTI,≤ 0.2
2,SWIC,≤ 0.2
3,WMVT,≤ 0.2
4,SMMH,≤ 0.2
5,PKAN,≤ 0.2
6,RATA,0.586
7,TDDV,≤ 0.2
8,LKTG,≤ 0.2
9,TPLV,≤ 0.2
10,RPLL,≤ 0.2
11,RVAK,≤ 0.2
12,HMQT,≤ 0.2
13,DPDT,≤ 0.2
14,NQGL,≤ 0.2
15,FRCR,≤ 0.2
16,LPNG,≤ 0.2
17,GHAG,≤ 0.2
18,ICRY,≤ 0.2
19,IIVR,≤ 0.2
20,DNSR,≤ 0.2
